# Experimental data taken from article PMC10668032.
# The list shows a part of the results. At the low end of the ranking, values are background and their order means little.
# Target: SIX1-Q177R homeodomain (UniProt Q15475)
# Assay: universal protein binding microarray
# Details: Universal all-10-mer PBM (8x60K, AMADID 030236), 300 nM GST-tagged protein, Alexa Fluor 488 anti-GST; buffer, salt, pH and temperature not stated; high values mean tight binding; most listed sequences are background and not binding sites; double strand, one strand shown
row,Sequence,binding signal [E-score]
1,GCACGGCC,0.0152
2,CCCCCTCA,0.223
3,GAGCTATA,-0.0682
4,AGATAGTA,-0.0707
5,ATAGTGCC,0.0545
6,ATATATGG,0.0341
7,CGCACAGA,-0.236
8,GAGGAGGA,-0.171
9,AGAAACTC,-0.0973
10,GTAGGCTA,0.0673
11,AAGCTTAC,-0.102
12,AGCGGTTG,-0.0473
13,AAGGGACG,-0.0234
14,AAATAAGA,-0.138
15,AATGTTAG,-0.208
16,TCCCCAAA,-0.00853
17,CCTATTCA,-0.123
18,ATTTTAAA,-0.156
19,CAATTAAA,-0.129
20,TGTCCGAA,-0.0173
21,TACGTCCA,-0.203
22,AAATAGGC,-0.0886
23,GTATCACA,0.3
24,CACAGCCC,-0.103
25,AGGCAGAT,-0.143

row,Sequence,binding signal [E-score]
1,ACGAGCGC,-0.0849
2,CTTTACAC,0.431
3,CAGAGCGA,-0.228
4,CGGAGTAA,0.266
5,CCATCCGG,0.116
6,ACTCCTAA,0.126
7,AATGTTCG,-0.203
8,CTTTAGTA,-0.111
9,CCGCATGA,-0.138
10,CCGCCAGC,0.0115
11,CGACTGAA,-0.259
12,CAGTATAC,0.11
13,AACACGAT,0.358
14,ATCACTTA,-0.101
15,CATAATGA,-0.0778
16,TACGACAA,-0.0084
17,CGACTAGA,0.042
18,ATCCTGGA,0.029
19,AGCCGGCA,-0.167
20,ATTGCCTC,0.00981
21,GAACCGGA,0.0287
22,CATGCAGA,0.0429
23,GCGCCCCA,-0.168
24,GCACAAGA,-0.1
25,GCACTATA,0.191

row,Sequence,binding signal [E-score]
1,ACGTGCGA,-0.112
2,GTAAACAA,0.00205
3,ATAGACTC,-0.126
4,ACCGAGAT,0.105
5,CCGTCAGG,0.00827
6,GCGGGCAC,0.0445
7,GGCCATTA,-0.0716
8,CCGTTCTC,-0.117
9,CACAAAAG,-0.146
10,CCATTTGA,0.0118
11,CCGCACAA,-0.164
12,ACGCACTC,0.108
13,ACGAGGTC,0.0594
14,AAGGCCCC,-0.161
15,GATCGACA,0.0764
16,GTAAGTTA,0.00332
17,ACCCACGG,0.145
18,ATCGCGGG,0.167
19,GCAACGAC,-0.0904
20,CCAATAGC,0.0132
21,ACCAACTG,-0.0355
22,GGTGTTAC,0.474
23,CCGGAGCG,-0.0583
24,CCATCCTA,-0.18
25,CCACGGGA,0.0285

row,Sequence,binding signal [E-score]
1,AAGCCCGG,0.0254
2,GCTATCCC,0.0222
3,ATACCCCC,0.364
4,AAGAGCAC,0.0766
5,CGCCCTGC,-0.0563
6,AGTAAACC,0.101
7,CCTTTCGA,-0.0929
8,AGGATGTC,-0.0186
9,TATGTTCA,-0.0544
10,CTGGCATA,0.0828
11,AGTGGAGA,-0.181
12,ACTGGTAG,-0.0479
13,CTAACTAC,0.245
14,AGCCTGAG,-0.11
15,TAAATCCA,-0.222
16,CTGCGTAA,-0.27
17,AAAACAAT,-0.228
18,GCTGCATA,-0.197
19,GTTACCTA,0.115
20,TACCCGGA,0.247
21,GAAGCAGA,-0.294
22,AATCCAGA,-0.145
23,ATGCTTAG,0.0707
24,TCTGGCCA,-0.077
25,CATCGTCG,-0.163

row,Sequence,binding signal [E-score]
1,GCCCGTAA,-0.197
2,GTGGGTTA,0.0574
3,CAAGTTGG,-0.118
4,GATAATGA,0.113
5,CAACCCGA,0.0652
6,CTTTGTAA,-0.0489
7,AGCATGCG,-0.151
8,ACGTGGGC,0.0136
9,ACAAACCA,-0.191
10,ATAATAGA,-0.172
11,AAGGGATA,0.0608
12,CAGCGTAC,0.0506
13,CTTTCGCA,-0.198
14,AGCTATGC,-0.22
15,AGGACGGA,-0.137
16,CTGAGTAC,0.0662
17,ATTTCAAC,-0.134
18,CGGGATCC,0.209
19,ACTTGATC,-0.0158
20,AGGTTTTG,-0.187
21,CACACTGC,0.258
22,GTGATAAC,0.132
23,CGCTCCAC,-0.0875
24,TAACTCAA,-0.227
25,CAGGGGGA,0.00041

row,Sequence,binding signal [E-score]
1,AATTATCG,-0.174
2,TACTGAAA,-0.177
3,CGAATTGC,-0.14
4,GAGTCCAA,0.0702
5,CCTAATAA,-0.116
6,AAACAATG,-0.178
7,ACAGAAAT,-0.0883
8,GTTTTGAA,-0.092
9,GAAGCAGC,-0.114
10,ACATGACC,-0.0485
11,AATCTATG,-0.109
12,CCTATAGA,-0.054
13,CATAAGAA,-0.0532
14,ACGCGAAT,0.0847
15,CAGTACCA,-0.0401
16,CCCGGGGC,0.0865
17,CCAACTGA,0.0757
18,ACGTCGAC,-0.136
19,ACGGCATG,0.00626
20,GCCGGCAA,-0.0815
21,GATCATCA,-0.0853
22,AGTTGTCA,-0.0878
23,AATATAGA,-0.0119
24,AACGAGTG,0.189
25,ATATCCCA,0.013

row,Sequence,binding signal [E-score]
1,GATTGAAC,0.162
2,CATTCCCA,-0.115
3,AGCCGGAA,-0.0552
4,CGCAAAAG,-0.195
5,CGCAAGAG,-0.194
6,CGCTTTGC,-0.155
7,AACATTCT,-0.287
8,TACCTCAA,-0.0693
9,CTGGCCTC,-0.259
10,GAGGCTTA,-0.137
11,CGCGAGGA,-0.0565
12,CAAGCGGG,0.0523
13,AACTCACT,-0.077
14,ATACTTCC,-0.0553
15,AGATACTA,-0.0723
16,ACGTGGAT,-0.0492
17,GTAGAAGA,0.102
18,AAAAACCC,0.0477
19,CAACCGCG,0.0971
20,CTACCATC,-0.118
21,GACGTAAC,-0.0265
22,ATGACTCC,0.273
23,ATGCAAGC,-0.145
24,ATCTTATC,-0.108
25,GCAGTGAC,0.0089

row,Sequence,binding signal [E-score]
1,ACAAAAAC,-0.0424
2,CGCCTGTA,-0.163
3,GTTTCCCA,0.0185
4,TAAACGTA,-0.257
5,ACTGTGCC,-0.171
6,ATGTGCAG,-0.155
7,AGGTTCCA,-0.0194
8,ACGAGCAG,0.0391
9,CGGCAAAG,-0.143
10,GCACGCCC,-0.0238
11,ACGAGCGA,-0.0289
12,GCGACAGA,-0.124
13,ATTCGTAA,-0.159
14,ACCTAGGT,0.157
15,AATACGAC,-0.0222
16,AACGCCGT,0.159
17,ACTGATCA,-0.066
18,GCTAATCA,-0.0485
19,TATTTTCA,-0.0239
20,CCATAACC,-0.0965
21,ATGTGCGG,0.0998
22,GTAGTGAA,-0.0315
23,ATCAGCAA,-0.185
24,ACTGTGAT,-0.0176
25,ACACATCT,0.144

row,Sequence,binding signal [E-score]
1,AGACGCAT,-0.143
2,GGAGAATA,0.193
3,AATAAGAC,-0.142
4,ATATCGTA,-0.126
5,ACGATAGC,-0.159
6,GCGGGGAC,0.0448
7,CGTGAGCC,-0.188
8,AATCGAGG,-0.0638
9,AAGTTTCT,-0.19
10,AGCCGTGA,-0.158
11,AGTTCGTC,-0.0906
12,CACAAGCG,0.0318
13,AAACTTTC,-0.304
14,ACACATAA,0.18
15,GACGATGA,-0.23
16,CATCATGC,-0.114
17,CCTTAGGA,-0.0121
18,CACCCGAA,0.276
19,GCAATTAC,-0.0877
20,AGAATGAG,-0.145
21,ACAGTGTG,0.139
22,CCCTGGCA,0.0435
23,CGATGGGA,-0.171
24,AGGACTAG,-0.103
25,ACAAGTAT,-0.000825

row,Sequence,binding signal [E-score]
1,CAATATCG,-0.198
2,ACCACCCG,0.14
3,CCATGCCC,-0.0487
4,CCAAAAGA,-0.0849
5,CGAGAGAA,-0.215
6,AAACTGAT,-0.0158
7,AGGCCACC,-0.154
8,ACACTTGA,0.376
9,AAAATTAA,-0.215
10,CAGTGAGG,-0.0361
11,CCTGTGGA,-0.127
12,AGCTGGTG,0.229
13,AACCGATA,0.0716
14,AAGATACC,0.225
15,AGCTTAGG,-0.0717
16,CGTTTTTA,-0.0972
17,GGGGGCAA,-0.182
18,CGATAAGA,-0.216
19,GATTAGTA,0.0964
20,AGAGTCCG,-0.154
21,GGAGGAAA,-0.204
22,TGACGCAA,-0.0998
23,CCCCTCTC,0.107
24,CGGAAGTC,-0.197
25,AACTCAAC,-0.0053

row,Sequence,binding signal [E-score]
1,ACGTACGA,-0.188
2,CTGTGTGC,0.0209
3,CCCTGGCC,-0.00771
4,GATAAGCA,0.0954
5,ATGTAAGA,-0.0291
6,GAAACCCA,0.126
7,CCGGCTAC,0.0969
8,ACGTAATA,-0.0915
9,AATCTATA,-0.152
10,CATGTGCG,-0.103
11,GCTGGTTA,-0.0378
12,AAACAACG,-0.0251
13,GACCTAAC,-0.0784
14,GCACAAAA,-0.143
15,AGGCTAGG,-0.0794
16,TCGCATAA,-0.1
17,ATCCGCGC,0.0799
18,ACTTAAAG,-0.0104
19,CGGTAGAG,0.126
20,AGCCGCCC,-0.00833
21,CAGTCTAA,-0.023
22,AAAGAACA,0.14
23,AGCCACAA,-0.196
24,CTTCTAGC,-0.145
25,ACTAGAAA,-0.154

row,Sequence,binding signal [E-score]
1,GTCGAGAC,0.0988
2,GAAGTTAC,-0.133
3,AGAGACGG,-0.0269
4,ACTGAGAC,-0.137
5,CAGTGAGC,-0.211
6,GATTTCCC,-0.0946
7,CTACCCCC,0.268
8,ATGACTGA,-0.173
9,CGGCTAAG,-0.134
10,ACAGCGCT,-0.172
11,AATGCAAA,-0.226
12,ATCGCTCC,-0.171
13,ACTGCAAC,0.056
14,AGATTAGA,-0.136
15,AGCCCATG,-0.178
16,GCTCGAGC,-0.0158
17,CTCATACA,0.101
18,GAATTGTA,-0.122
19,GCACTAAA,-0.00693
20,ACTTCCAA,-0.134
21,GTGGCTGA,-0.0464
22,ACTCGGAT,0.124
23,AATGATCC,0.17
24,CTCATAGC,-0.297
25,ATCAAGAG,-0.101

row,Sequence,binding signal [E-score]
1,CGTCTAAG,0.0324
2,CACCATGC,0.297
3,ATCAGAAC,0.0286
4,AGGTATAT,-0.034
5,CTCGGGCC,-0.0314
6,GCGCTCGA,-0.127
7,GGGAGAAA,-0.165
8,AGTCAGGA,-0.0668
9,CATCACCC,0.0258
10,ATGGAACG,-0.23
11,AAAATCTA,-0.155
12,TAGGGCCA,-0.298
13,GACCAGCA,0.04
14,GAAGCAAC,-0.0823
15,AGATATCG,-0.135
16,ATAAGCCC,-0.148
17,ATTGCACC,0.296
18,AGAGAGAA,-0.186
19,TCATTGAA,0.0886
20,AAATATAC,-0.0479
21,ACAACGCT,-0.149
22,GACCCACA,0.107
23,GCCATCGC,-0.119
24,CGACTAGC,-0.063
25,TAAGAATA,-0.12

row,Sequence,binding signal [E-score]
1,AATTTATC,-0.0386
2,AAAGCGGA,0.00272
3,AAACGCAC,0.115
4,ATCCTCGC,0.0903
5,AACTCGGA,-0.0262
6,AAGTGACA,0.135
7,CCGGTCGA,-0.0602
8,ACATAGTA,0.0569
9,CCCACCCC,0.304
10,GCTAAACC,-0.147
11,CGGGGTAG,0.221
12,CAATGTGC,-0.239
13,GGCAACCC,0.0693
14,AAATCACT,-0.235
15,GATGTAGA,-0.15
16,CCTAGCCA,-0.199
17,ATACTGTG,0.0919
18,AAAGTGGC,-0.277
19,GAGGGGGC,-0.115
